Data published in PMC9911399, “Two distinct binding modes provide the RNA-binding protein RbFox with extraordinary sequence specificity”.
Changes are numbered by the printed parent chain; changes in the protein carry UniProt numbers. The list shows a part of the results.

B1: GUGCGGC (DNA:RNA)
RNA: GGGAGACCGGAAUUCAGAUUGUCCGUGCGGCUUAAAUCCCGUCGUAGCCACCA
DNA 1: CAATCTGAATTCCGGTCTCCC
DNA 2: TGGTGGCTACGACGGGATT
B2: CCUCCGU (DNA:RNA)
RNA: B1 RNA with G25C, U26C, G27U, G29C, C31U
DNA 1: CAATCTGAATTCCGGTCTCCC
DNA 2: TGGTGGCTACGACGGGATT
B3: ACCAAAU (DNA:RNA)
RNA: GGGAGACCGGAAUUCAGAUUGUCCACCAAAUUUAAAUCCCGUCGUAGCCACCA
DNA 1: CAATCTGAATTCCGGTCTCCC
DNA 2: TGGTGGCTACGACGGGATT
B4: CCACUCC (DNA:RNA)
RNA: B1 RNA with G25C, U26C, G27A, G29U, G30C
DNA 1: CAATCTGAATTCCGGTCTCCC
DNA 2: TGGTGGCTACGACGGGATT
B5: AGCAAGA (DNA:RNA)
RNA: B3 RNA with C26G, A30G, U31A
DNA 1: CAATCTGAATTCCGGTCTCCC
DNA 2: TGGTGGCTACGACGGGATT
B6: UCGAAGC (DNA:RNA)
RNA: B3 RNA with A25U, C27G, A30G, U31C
DNA 1: CAATCTGAATTCCGGTCTCCC
DNA 2: TGGTGGCTACGACGGGATT
B7: GGAUCGA (DNA:RNA)
RNA: B1 RNA with U26G, G27A, C28U, G29C, C31A
DNA 1: CAATCTGAATTCCGGTCTCCC
DNA 2: TGGTGGCTACGACGGGATT
B8: AGUCGAG (DNA:RNA)
RNA: B3 RNA with C26G, C27U, A28C, A29G, U31G
DNA 1: CAATCTGAATTCCGGTCTCCC
DNA 2: TGGTGGCTACGACGGGATT
B9: GGUGAUC (DNA:RNA)
RNA: B1 RNA with U26G, G27U, C28G, G29A, G30U
DNA 1: CAATCTGAATTCCGGTCTCCC
DNA 2: TGGTGGCTACGACGGGATT

molecular target: T1, RBFOX1 RRM RbFoxmut (Fox-RRM*) (Homo sapiens, UniProt Q9NWB1 109-208, R118D;E147R;N151S;E152T); test: EMSA; HiTS-Eq, 1 nM pool, 10 min; buffer printed only for the single-RNA assays: 10 mM Tris pH 7.5, 150 mM NaCl, 3.4 mM EDTA, 0.001% NP-40, 30 C; conditions: tags: His6 N-terminal (pET28a); label: 5' 32P
T1 sequence: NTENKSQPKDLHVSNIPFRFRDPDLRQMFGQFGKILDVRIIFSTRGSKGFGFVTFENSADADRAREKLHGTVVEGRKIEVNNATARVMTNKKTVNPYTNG
Procedure, shortened: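 Relative association constants, normalised to the cognate motif, were derived by comparing read counts of each RNA species with those of the control reaction. The RNA sequenced was the free fraction, separated by 8% native PAGE after a 10 min equilibration in 50 µL of 1 nM 5′-radiolabelled RNA (7 randomized nucleotides) with increasing concentrations of purified wild-type or mutant RbFox RRM.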

Row | Binder | binding signal
1 | B1 | 0.113 KA relative to UGCAUGU
2 | B2 | 0.0837 KA relative to UGCAUGU
3 | B3 | 0.074 KA relative to UGCAUGU
4 | B4 | 0.105 KA relative to UGCAUGU
5 | B5 | 0.0939 KA relative to UGCAUGU
6 | B6 | 0.0896 KA relative to UGCAUGU
7 | B7 | 0.293 KA relative to UGCAUGU
8 | B8 | 0.093 KA relative to UGCAUGU
9 | B9 | 0.284 KA relative to UGCAUGU
